Article PMC4624954, “Delineating the Tes Interaction Site in Zyxin and Studying Cellular Effects of Its Disruption” (PLoS ONE, 2015)
No constants are given. Whether binding was seen depends on the method and setting. For some assays here: In cells and extracts the contact can be indirect. Some entries that bind do so weakly or less than the wild type. Tags and fused reporters may be left off the sequences shown. One block for each binder: values may come before it.

Tests used:
[1] = biological target: T1, GST-Tes LIM1 (UniProt Q9UGI8); experiment: pull-down; 16 μg purified GST-Tes LIM1 immobilised on Glutathione Sepharose 4B; 200 μg total protein of transfected HeLa extract; NP40 lysis buffer (50 mM Tris pH 7.4, 120 mM NaCl, 0.5% Nonidet P-40, 0.5 mM EDTA), 2 hours at 4°C; Western blot of bound and non-bound fractions (anti-GFP or anti-zyxin); only the target purified
T1 sequence: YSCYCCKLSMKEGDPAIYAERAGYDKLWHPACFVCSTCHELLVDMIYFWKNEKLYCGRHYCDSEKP

[2] = biological target: T2, Zyx FL WT-mito (human) (UniProt Q15942); experiment: ectopic recruitment to mitochondria; Vero cells transiently co-transfected with a zyxin-mito variant (held on the surface of mitochondria by the ActA membrane anchor) and a GFP-Tes variant; fixed cells, immunofluorescence (anti-zyxin or anti-myc) and GFP signal
T2 sequence: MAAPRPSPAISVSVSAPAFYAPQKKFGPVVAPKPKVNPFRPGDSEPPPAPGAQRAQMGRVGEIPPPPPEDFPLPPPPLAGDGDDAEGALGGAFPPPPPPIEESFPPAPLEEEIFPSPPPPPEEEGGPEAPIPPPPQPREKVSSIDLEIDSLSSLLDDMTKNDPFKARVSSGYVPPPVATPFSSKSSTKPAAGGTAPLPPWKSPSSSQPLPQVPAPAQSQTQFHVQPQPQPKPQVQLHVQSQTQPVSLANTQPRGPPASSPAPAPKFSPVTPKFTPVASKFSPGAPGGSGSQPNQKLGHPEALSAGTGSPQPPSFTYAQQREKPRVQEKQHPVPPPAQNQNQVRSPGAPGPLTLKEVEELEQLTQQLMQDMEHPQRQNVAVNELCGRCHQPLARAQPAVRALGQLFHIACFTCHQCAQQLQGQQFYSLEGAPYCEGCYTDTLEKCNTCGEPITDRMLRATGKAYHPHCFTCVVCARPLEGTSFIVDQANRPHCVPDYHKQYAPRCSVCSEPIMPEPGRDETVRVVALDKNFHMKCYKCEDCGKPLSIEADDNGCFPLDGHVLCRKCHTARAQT

[3] = biological target: T3, Zyx 51-63-myc-mito (human) (UniProt Q15942); experiment: as above
T3 sequence: GAQRAQMGRVGEI

[4] = biological target: T4, Zyx NT-mito (human) (UniProt Q15942); experiment: as above
T4 sequence: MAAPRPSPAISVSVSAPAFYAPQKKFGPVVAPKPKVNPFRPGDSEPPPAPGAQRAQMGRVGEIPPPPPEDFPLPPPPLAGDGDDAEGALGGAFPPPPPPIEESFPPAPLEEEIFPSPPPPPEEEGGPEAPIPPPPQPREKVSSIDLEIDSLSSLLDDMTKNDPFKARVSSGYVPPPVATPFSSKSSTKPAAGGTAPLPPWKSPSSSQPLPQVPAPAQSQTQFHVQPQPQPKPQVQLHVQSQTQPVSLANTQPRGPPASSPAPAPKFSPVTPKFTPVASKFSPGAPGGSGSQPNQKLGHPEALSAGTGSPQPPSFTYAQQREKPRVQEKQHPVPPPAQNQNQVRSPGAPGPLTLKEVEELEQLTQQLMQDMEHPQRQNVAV

[5] = biological target: T5, Zyx 140-380-myc-mito (human) (UniProt Q15942); experiment: as above
T5 sequence: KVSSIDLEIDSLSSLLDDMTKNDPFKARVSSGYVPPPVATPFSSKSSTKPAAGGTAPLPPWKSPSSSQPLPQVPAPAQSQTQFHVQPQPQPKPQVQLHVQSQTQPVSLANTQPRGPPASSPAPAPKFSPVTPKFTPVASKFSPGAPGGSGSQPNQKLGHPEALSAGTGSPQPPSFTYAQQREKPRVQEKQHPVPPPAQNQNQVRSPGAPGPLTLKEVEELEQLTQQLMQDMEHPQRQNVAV

[6] = biological target: T6, Zyx 51-140-myc-mito (human) (UniProt Q15942); experiment: as above
T6 sequence: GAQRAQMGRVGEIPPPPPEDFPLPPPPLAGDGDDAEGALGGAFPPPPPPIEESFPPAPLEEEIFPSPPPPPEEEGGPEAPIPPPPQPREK

[7] = biological target: T7, Zyx LIM-myc-mito (human) (UniProt Q15942); experiment: as above
T7 sequence: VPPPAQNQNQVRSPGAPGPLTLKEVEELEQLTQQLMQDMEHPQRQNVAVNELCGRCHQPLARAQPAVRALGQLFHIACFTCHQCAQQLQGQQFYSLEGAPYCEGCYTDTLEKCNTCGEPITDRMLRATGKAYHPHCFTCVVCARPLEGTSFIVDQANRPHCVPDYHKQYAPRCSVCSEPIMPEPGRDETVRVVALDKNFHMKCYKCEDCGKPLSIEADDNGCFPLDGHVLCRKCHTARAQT

[8] = biological target: T8, Zyx 51-77-myc-mito (human) (UniProt Q15942); experiment: as above
T8 sequence: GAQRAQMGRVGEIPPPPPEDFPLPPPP

[9] = biological target: T9, Zyx 64-77-myc-mito (human) (UniProt Q15942); experiment: as above
T9 sequence: PPPPPEDFPLPPPP

B1: Zyx FL WT-GFP (protein, UniProt Q15942 1-572)
chain: MAAPRPSPAISVSVSAPAFYAPQKKFGPVVAPKPKVNPFRPGDSEPPPAPGAQRAQMGRVGEIPPPPPEDFPLPPPPLAGDGDDAEGALGGAFPPPPPPIEESFPPAPLEEEIFPSPPPPPEEEGGPEAPIPPPPQPREKVSSIDLEIDSLSSLLDDMTKNDPFKARVSSGYVPPPVATPFSSKSSTKPAAGGTAPLPPWKSPSSSQPLPQVPAPAQSQTQFHVQPQPQPKPQVQLHVQSQTQPVSLANTQPRGPPASSPAPAPKFSPVTPKFTPVASKFSPGAPGGSGSQPNQKLGHPEALSAGTGSPQPPSFTYAQQREKPRVQEKQHPVPPPAQNQNQVRSPGAPGPLTLKEVEELEQLTQQLMQDMEHPQRQNVAVNELCGRCHQPLARAQPAVRALGQLFHIACFTCHQCAQQLQGQQFYSLEGAPYCEGCYTDTLEKCNTCGEPITDRMLRATGKAYHPHCFTCVVCARPLEGTSFIVDQANRPHCVPDYHKQYAPRCSVCSEPIMPEPGRDETVRVVALDKNFHMKCYKCEDCGKPLSIEADDNGCFPLDGHVLCRKCHTARAQT
binding [1]: binds

B3: endogenous zyxin (protein, UniProt Q15942 1-572)
chain: MAAPRPSPAISVSVSAPAFYAPQKKFGPVVAPKPKVNPFRPGDSEPPPAPGAQRAQMGRVGEIPPPPPEDFPLPPPPLAGDGDDAEGALGGAFPPPPPPIEESFPPAPLEEEIFPSPPPPPEEEGGPEAPIPPPPQPREKVSSIDLEIDSLSSLLDDMTKNDPFKARVSSGYVPPPVATPFSSKSSTKPAAGGTAPLPPWKSPSSSQPLPQVPAPAQSQTQFHVQPQPQPKPQVQLHVQSQTQPVSLANTQPRGPPASSPAPAPKFSPVTPKFTPVASKFSPGAPGGSGSQPNQKLGHPEALSAGTGSPQPPSFTYAQQREKPRVQEKQHPVPPPAQNQNQVRSPGAPGPLTLKEVEELEQLTQQLMQDMEHPQRQNVAVNELCGRCHQPLARAQPAVRALGQLFHIACFTCHQCAQQLQGQQFYSLEGAPYCEGCYTDTLEKCNTCGEPITDRMLRATGKAYHPHCFTCVVCARPLEGTSFIVDQANRPHCVPDYHKQYAPRCSVCSEPIMPEPGRDETVRVVALDKNFHMKCYKCEDCGKPLSIEADDNGCFPLDGHVLCRKCHTARAQT
binding [1]: binds

Binder: GAQRAQMGRAAAA (domain or fragment, UniProt Q15942 51-63) [Zyx 51–63 MT-GFP]
binding [1]: no binding

B5: GFP-Tes LIM (domain or fragment, UniProt Q9UGI8 234-421)
chain: YSCYCCKLSMKEGDPAIYAERAGYDKLWHPACFVCSTCHELLVDMIYFWKNEKLYCGRHYCDSEKPRCAGCDELIFSNEYTQAENQNWHLKHFCCFDCDSILAGEIYVMVNDKPVCKPCYVKNHAVVCQGCHNAIDPEVQRVTYNNFSWHASTECFLCSCCSKCLIGQKFMPVEGMVFCSVECKKRMS
binding [2]: binds | binding [3]: binds | binding [4]: binds | binding [5]: no binding | binding [6]: binds | binding [7]: no binding | binding [8]: binds | binding [9]: no binding

Now from value to binder:

binding [1]: no binding
B2: Zyx FL MT-GFP (protein, UniProt Q15942 1-572)
chain: MAAPRPSPAISVSVSAPAFYAPQKKFGPVVAPKPKVNPFRPGDSEPPPAPGAQRAQMGRAAAAPPPPPEDFPLPPPPLAGDGDDAEGALGGAFPPPPPPIEESFPPAPLEEEIFPSPPPPPEEEGGPEAPIPPPPQPREKVSSIDLEIDSLSSLLDDMTKNDPFKARVSSGYVPPPVATPFSSKSSTKPAAGGTAPLPPWKSPSSSQPLPQVPAPAQSQTQFHVQPQPQPKPQVQLHVQSQTQPVSLANTQPRGPPASSPAPAPKFSPVTPKFTPVASKFSPGAPGGSGSQPNQKLGHPEALSAGTGSPQPPSFTYAQQREKPRVQEKQHPVPPPAQNQNQVRSPGAPGPLTLKEVEELEQLTQQLMQDMEHPQRQNVAVNELCGRCHQPLARAQPAVRALGQLFHIACFTCHQCAQQLQGQQFYSLEGAPYCEGCYTDTLEKCNTCGEPITDRMLRATGKAYHPHCFTCVVCARPLEGTSFIVDQANRPHCVPDYHKQYAPRCSVCSEPIMPEPGRDETVRVVALDKNFHMKCYKCEDCGKPLSIEADDNGCFPLDGHVLCRKCHTARAQT

binding [2]: binds weakly
B4: Tes FL-GFP (natural protein, UniProt Q9UGI8 1-421, looked up)
chain: MDLENKVKKMGLGHEQGFGAPCLKCKEKCEGFELHFWRKICRNCKCGQEEHDVLLSNEEDRKVGKLFEDTKYTTLIAKLKSDGIPMYKRNVMILTNPVAAKKNVSINTVTYEWAPPVQNQALARQYMQMLPKEKQPVAGSEGAQYRKKQLAKQLPAHDQDPSKCHELSPREVKEMEQFVKKYKSEALGVGDVKLPCEMDAQGPKQMNIPGGDRSTPAAVGAMEDKSAEHKRTQYSCYCCKLSMKEGDPAIYAERAGYDKLWHPACFVCSTCHELLVDMIYFWKNEKLYCGRHYCDSEKPRCAGCDELIFSNEYTQAENQNWHLKHFCCFDCDSILAGEIYVMVNDKPVCKPCYVKNHAVVCQGCHNAIDPEVQRVTYNNFSWHASTECFLCSCCSKCLIGQKFMPVEGMVFCSVECKKRMS

binding [1]: binds
Binder: GAQRAQMGRVGEI (domain or fragment, UniProt Q15942 51-63) [Zyx 51-63-GFP]
